# Measurements reported in the supplement of paper PMC11417369.
# ± gives the standard deviation of the averaged measurements. Some of the results follow.
# Test system: PfAP2-LT AP2 domain (GST-tagged)
# Assay: gcPBM binding intensity (ln(normalized median fluorescence intensity)); higher = stronger DNA binding
# Outline: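 In this array assay, P. falciparum DNA-binding domains with a GST tag, expressed in E. coli, were applied for 1 h to primer-extended double-stranded 36-bp intergenic genomic probes and negative controls on an Agilent 4 × 180k array. Bound protein was visualised with Alexa488 anti-GST antibody at 488 nm. Binding intensity is the highest Masliner-normalised natural-log median intensity across replicate spots of either probe orientation.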
row,Sequence,gcPBM binding intensity (ln)
1,TTTTTTGTTAAGTTGGTGCAAACAATAGTTATTGAC,8.58 ± 0.41
2,GGAGCACCCAGACACACACACACATATATATATATA [CACACA_site336],10.4 ± 0.19
3,TATATCTACTACACACGTACACAAAATAAGATACCT [XGTACX_site7886],9.16 ± 0.25
4,GAATTGTATTGGTACTGTACAATTAAATTAAAAAAA [XGTACX_site1891],8.63 ± 0.55
5,TGTAGTCTGGAGAAGAGTACATAGTATCTGGTAGCT [XGTACX_site2029],8.86 ± 0.45
6,ACATAAAATTATTATACATGCATATTTAATTTTTTC [TGCATGCA_site353],8.69 ± 0.45
7,AAAAAAAAAAAACACACACACACACCCATATATAAA [CACACA_site1170],9.995 ± 0.064
8,AAAAATATAAACAAACGTACGAAGTGATGATATATT [XGTACX_site2242],9.13 ± 0.52
9,TATTATATTTTTATTTGTACGTAAAATTAAGTTATG [XGTACX_site2405],8.58 ± 0.44
10,GCACATTTTTTTATCACACATATAATTACAATATAA [CACACA_site5585],8.74 ± 0.31
11,TTTCGGTTTTTTTTTATTTTTTTTTTTTTATTATTT [CACACA_negctrl_site335],8.66 ± 0.59
12,TACGTATGCCTGTGATGTACATATATATATACATAC [XGTACX_site4728],9.21 ± 0.38
13,AAAAGATGCGCATACACACAGATGAATAACAAAAAA [CACACA_site6865],9.44 ± 0.6
14,ATAATATAATTTTGCAGTACCCAAAAAACAAAATAA [XGTACX_site4827],8.7 ± 0.45
15,AAAGTATAATAATACACACACTTTAAAAGTTAAATG [CACACA_site7550],9.17 ± 0.49
16,AATATGATATATATATGTACATATATATAATATAAT [XGTACX_site3072],8.99 ± 0.38
17,ATATAGGTAAAAAGTATACACACGTTGACACATTCT [CACACA_site1199],9.08 ± 0.37
18,TCATTATATCATGGTAGTACTCATTAATAATACGTA [XGTACX_site8701],8.57 ± 0.37
19,GTTAATAAAAATATATGTACATAATTATTATGAAAA [XGTACX_site3030],8.64 ± 0.41

row,Sequence,gcPBM binding intensity (ln)
1,TATATATTTTTTAAACCACACACAATATAGAGTATA [CACACA_site8106],8.9 ± 0.35
2,AATATTATTTAGGAGCGTACGTTTTATTTACATATT [XGTACX_site5188],8.98 ± 0.32
3,GGCATAAATATATGCACACACAAAAAAAAAAAAAAA [CACACA_site59],9.29 ± 0.52
4,ATATTGTTTTATATAGAACACACATAAAAATATATA [CACACA_site8314],8.65 ± 0.52
5,TTTTTTTTTTTAAAAAGTACACAATTAATTAATATA [XGTACX_site8494],8.1 ± 0.4
6,TATAAACATTATAAATGTACAAATATATATATATAT [XGTACX_site3218],9.21 ± 0.26
7,TTATTGAAAAAAGAACAAAAAAAAAAAGAAAAATTA [XGTACX_negctrl_site438],8.17 ± 0.48
8,AAAATAAGAAATAGATGTACTTATAAATAAATACAA [XGTACX_site4441],8.56 ± 0.57
9,GAAAGAATAAAATTTACACACATATATATATACATA [CACACA_site2250],8.98 ± 0.38
10,ATATATATATATATATGTACTTATTTGAATACTAAA [XGTACX_site2330],9.27 ± 0.16
11,AAGGGTTGCCTGTGTAGTACATATATATATATATAT [XGTACX_site8555],9.61 ± 0.37
12,TGACTATGTATATTTAGTACATAAAATCAATAATAT [XGTACX_site4082],8.65 ± 0.45
13,AAATTATATTATTGAACACACGTTTGGTAATGTTTT [CACACA_site5469],8.87 ± 0.35
14,TCATTCATAAAAATAACACACAAAAAAAAAAAAAAA [CACACA_site1800],8.64 ± 0.42
15,GTAAACAAAATATTTTGTACATATTTTATATTATTT [XGTACX_site7837],8.69 ± 0.41
16,AGGGAAAAAAAAAAAGTGCATTTGTATTAAATGAAT,8.55 ± 0.63
17,AAATATAAGAAAAAGGTGCTTTTTTTTTTTTTTTTT [GTGCAC_site9700],8.69 ± 0.3
18,ATAATGATATATAGTACACACAAAAATGGAAGTAAA [CACACA_site7541],9.23 ± 0.46
19,GGACATTTTTATAAGGTGCACGGTTTTGATATTACT [GTGCAC_site9892],8.98 ± 0.39

row,Sequence,gcPBM binding intensity (ln)
1,AACCACATACATATAACACACATATACAATATATAT [CACACA_site8607],9.29 ± 0.39
2,CATTAAATATATAAATGTACAAATATATTTTTCAAA [XGTACX_site4429],8.42 ± 0.49
3,TTGTTCATATTTTTTATTGTGTTAATATTTATAAAA [GTGCAC_negctrl_site423],8.47 ± 0.38
4,TTAATGTAGAGAAAATGTACATTTTATTAAAACAAT [XGTACX_site6376],8.76 ± 0.47
5,CCTATTTATAAATACACACACATATATAAATAAATA [CACACA_site5629],9.23 ± 0.25
6,AAAAAACTATTATGTGCATGCACAAGTCAGGTAAAT [TGCATGCA_site791],9.29 ± 0.32
7,TATTTATAGATATATACACACATATTTATATTTATA [CACACA_site6441],8.81 ± 0.52
8,AAAAAGAAATCCAATACACACCTTCAAAATGGGTAT [CACACA_site4978],8.89 ± 0.37
9,TTTTTTATTTTTGCGTGTACATAATAATGAATCTTC [XGTACX_site8077],8.72 ± 0.51
10,GAAATTTCCCATATTACACACATACTATGATATATA [CACACA_site5987],9.1 ± 0.35
11,TTTTAAATATATGTGCTATTATATTAAGAGATGTAA [GTGCAC_negctrl_site560],8.19 ± 0.38
12,ATCTATAAATTTCCACGTACATATATATATATATAT [XGTACX_site4502],9.37 ± 0.13
13,CCTCTTTTTATTCTCACACACGTTTATATATAAAGT [CACACA_site4992],9.29 ± 0.54
14,TTATAAATGTATTTATGTACATATAAATATATATAA [XGTACX_site2970],8.44 ± 0.45
15,AAAAGAAAATAAGAAACACACAAAAATATATAAAAA [CACACA_site3697],8.96 ± 0.69
16,TTCTTTGCTTTTCAAACACACAAAAGTTATTATATT [CACACA_site521],8.79 ± 0.45
17,ATATAAATCAAAAACGCACACATAAATATTTATATA [CACACA_site2442],9.22 ± 0.3
18,ATAAAAGAATAAATAAAACACATATATATATATATA [XGTACX_negctrl_site31],9.76
19,TTTTTTTTTTTTTTGGTGCACATAGAAATTCTAAAA [GTGCAC_site9809],8.25 ± 0.28
